The supplement of paper PMC3334620
In all, about 33,000 sequences were measured (“E-score (-0.5 to 0.5)”: median about -0.017, highest 2% from about 0.3 on). This is one part of the list.

Each sequence was assayed against T1, Sut1 (UniProt P53032) (assay: PBM E-score (8-mer binding enrichment) (E-score (-0.5 to 0.5)); higher = stronger / more preferred TF binding; most listed sequences are background and not binding sites). Conditions: protein concentration: 200 nM; construct: GST-full length.
T1 sequence: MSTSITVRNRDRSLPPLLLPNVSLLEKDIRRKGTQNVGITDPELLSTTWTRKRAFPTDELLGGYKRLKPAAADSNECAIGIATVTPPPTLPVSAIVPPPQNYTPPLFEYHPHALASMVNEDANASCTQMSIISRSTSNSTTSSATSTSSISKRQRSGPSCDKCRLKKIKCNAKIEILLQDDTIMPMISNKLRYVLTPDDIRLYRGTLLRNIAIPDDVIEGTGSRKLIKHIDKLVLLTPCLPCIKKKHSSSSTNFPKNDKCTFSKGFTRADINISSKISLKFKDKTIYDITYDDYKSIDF
Method: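 Universal 'all 10-mer' protein binding microarrays (Agilent AMADID 015681) probed with GST-tagged S. cerevisiae TFs (full-length or DBD) made by in vitro transcription/translation (PURExpress), about 100-200 nM. Bound TF was detected with fluorescent anti-GST. Each ungapped 8-mer (which stands for itself and its reverse complement) is scored by the PBM enrichment score (E-score), a modified Wilcoxon-Mann-Whitney statistic from -0.5 to +0.5, computed with the Universal PBM Analysis Suite. Scale: above 0.35 generally sequence-specific binding.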

Compared with ACCCAGAA, AATAATTC is higher in “PBM E-score” value: 0.0581 for the first, 0.268 for the second.

Going from ATCCCTGC to ATAATGAA, the “PBM E-score” value rises from -0.22 to 0.251.

First: GCCTCTGA
Second: AAGAGTCC
The “PBM E-score” value of the first is lower: -0.292 for the first, 0.101 for the second.

Going from ATTTAGGA to CAGGCACC, the “PBM E-score” value falls from 0.135 to -0.358.

Going from CGCCTTGC to AGGATTTG, the “PBM E-score” value rises from -0.14 to 0.0444.

Compared with TGACGTAA, ATAGCAGG is lower in “PBM E-score” value: 0.0762 for the first, 0.0363 for the second.

Going from CGCTGTAG to AACTCAGG, the “PBM E-score” value rises from -0.14 to -0.135.

Compared with CGTCTTAG, AGGAGATA is higher in “PBM E-score” value: -0.212 for the first, -0.155 for the second.

First: GGGCCGTA
Second: GACCAGAC
The “PBM E-score” value of the first is higher: -0.0712 for the first, -0.203 for the second.

Going from ACGCGGAG to CGGTCCCC, the “PBM E-score” value falls from 0.362 to -0.121.

First: GCGCGCCC
Second: GCGCACTA
The “PBM E-score” value of the first is lower: -0.153 for the first, -0.0946 for the second.

Going from ACTATTGC to CTACAACA, the “PBM E-score” value falls from 0.127 to 0.00887.

Compared with AAGTGAAA, ATAGACGA is lower in “PBM E-score” value: 0.194 for the first, 0.125 for the second.

Going from CCATGAAG to CTAGCCCA, the “PBM E-score” value falls from -0.00887 to -0.118.

Going from ATCAGCTA to CGCTCACA, the “PBM E-score” value falls from -0.158 to -0.166.

First: AGGACCTG
Second: AGTTCAGA
The “PBM E-score” value of the first is lower: -0.134 for the first, 0.0905 for the second.

Going from AGGATGTC to GAAACATA, the “PBM E-score” value rises from -0.0323 to 0.0844.

Compared with CTGGCGGA, CGATGACA is higher in “PBM E-score” value: -0.189 for the first, -0.0645 for the second.

First: ACAATAGC
Second: GTGCGGCA
The “PBM E-score” value of the first is higher: 0.0185 for the first, -0.126 for the second.

Compared with CCGTCTGA, CCGTTTGA is higher in “PBM E-score” value: -0.0521 for the first, 0.036 for the second.

Compared with ACTTAAGA, GCTTACAC is lower in “PBM E-score” value: 0.217 for the first, -0.201 for the second.

Going from ACGTTGGG to ATCCTGCC, the “PBM E-score” value falls from -0.251 to -0.302.

First: CCGCTCAC
Second: GGAACAAC
The “PBM E-score” value of the first is lower: -0.144 for the first, 0.132 for the second.

Compared with CCGTAACG, TCAGGAGA is higher in “PBM E-score” value: -0.0564 for the first, 0.0262 for the second.

Going from AACGTGTC to GGAGAGCC, the “PBM E-score” value falls from -0.136 to -0.289.

Going from ACGGTATA to GAGGTAAA, the “PBM E-score” value rises from -0.115 to 0.0978.

First: GAGGGAAC
Second: GTGGCGAA
The “PBM E-score” value of the first is higher: -0.0987 for the first, -0.115 for the second.

Compared with GAACAGCA, ACAGTCGT is lower in “PBM E-score” value: 0.0832 for the first, -0.0727 for the second.

Going from CCGAGGAC to GAAACGTA, the “PBM E-score” value falls from 0.0966 to 0.0643.

Going from GCTCAACA to AAGCGACT, the “PBM E-score” value rises from -0.0496 to 0.0273.

Going from ATGACAAC to GATGCGAC, the “PBM E-score” value falls from 0.184 to -0.173.

Compared with GTTTCCCA, ACTTGCCT is lower in “PBM E-score” value: 0.0552 for the first, -0.0394 for the second.

Going from CACGAAGC to AAAATTCC, the “PBM E-score” value rises from -0.14 to 0.288.

Going from CGCGGCAC to ACGGGGTA, the “PBM E-score” value rises from -0.125 to -0.0603.

Compared with ACTTCGTC, AGTTCCGA is higher in “PBM E-score” value: 0.0543 for the first, 0.196 for the second.

Going from GCATTTGA to CCGACTTC, the “PBM E-score” value falls from 0.21 to -0.075.

Compared with TGCATAAA, AAGACTCT is lower in “PBM E-score” value: 0.163 for the first, -0.0107 for the second.

Going from AGGACCTC to GGTTGTCA, the “PBM E-score” value falls from -0.0609 to -0.119.

Going from CTAGGACA to AAGCTTCA, the “PBM E-score” value rises from -0.117 to -0.0716.

Compared with ACAATACT, CTTGCTGA is lower in “PBM E-score” value: 0.0977 for the first, -0.0969 for the second.

First: CACCGCCC
Second: CCTATAGG
The “PBM E-score” value of the first is higher: -0.182 for the first, -0.265 for the second.

First: ACACGGAT
Second: CGAGTGTA
The “PBM E-score” value of the first is higher: 0.0295 for the first, -0.189 for the second.

First: CGCGAGTC
Second: GCAAACCC
The “PBM E-score” value of the first is higher: -0.0475 for the first, -0.0925 for the second.

First: AAACGGGT
Second: GTAAGGGA
The “PBM E-score” value of the first is higher: 0.0207 for the first, -0.0702 for the second.

Going from CTTAATCA to ACGACATA, the “PBM E-score” value falls from 0.171 to -0.19.

First: AACGTTGC
Second: AGCAGCGA
The “PBM E-score” value of the first is lower: -0.121 for the first, -0.0229 for the second.

First: AAACAGGA
Second: GATCAATC
The “PBM E-score” value of the first is higher: -0.0964 for the first, -0.117 for the second.

First: GCCAACGC
Second: CAGCGCTG
The “PBM E-score” value of the first is lower: -0.19 for the first, -0.0402 for the second.

Going from CCGTAGGA to CTACTAGA, the “PBM E-score” value rises from -0.163 to -0.0398.

Compared with CCCTTTAG, CTAACCAG is higher in “PBM E-score” value: -0.175 for the first, -0.0356 for the second.

Compared with CAAATATG, TAATGCAA is lower in “PBM E-score” value: -0.00478 for the first, -0.042 for the second.

Compared with ATCTCTCC, AAGACGAA is higher in “PBM E-score” value: -0.0902 for the first, 0.0901 for the second.

First: CCGACAGC
Second: ATACGAAG
The “PBM E-score” value of the first is lower: 0.00168 for the first, 0.105 for the second.

Compared with AAATAAAC, GACCGCCC is lower in “PBM E-score” value: 0.274 for the first, -0.134 for the second.

Compared with AAGTCTGT, CTACCGTA is higher in “PBM E-score” value: -0.0602 for the first, 0.0306 for the second.

First: ACCGTTTC
Second: CGGGTTGC
The “PBM E-score” value of the first is higher: -0.06 for the first, -0.144 for the second.

First: AGGTGTAT
Second: CTACTCCC
The “PBM E-score” value of the first is higher: -0.0667 for the first, -0.139 for the second.

First: ATGATATA
Second: CTTGGGAC
The “PBM E-score” value of the first is higher: 0.153 for the first, -0.224 for the second.

Going from CGTAAACG to ACGGTTAC, the “PBM E-score” value rises from -0.196 to 0.0273.

Going from ATAGCACA to AGGGGATA, the “PBM E-score” value falls from 0.083 to -0.261.

Compared with CCTTAACA, AGAGTCTC is higher in “PBM E-score” value: -0.112 for the first, -0.0242 for the second.

Compared with CCGCAATC, ATTTAGTG is higher in “PBM E-score” value: 0.128 for the first, 0.196 for the second.

First: TAATAGCA
Second: ATCTTCCG
The “PBM E-score” value of the first is lower: -0.0305 for the first, 0.126 for the second.

Compared with ACCGATCT, AAGCATCG is higher in “PBM E-score” value: -0.0267 for the first, 0.0311 for the second.

Compared with CGATGAAG, AGACGAAT is higher in “PBM E-score” value: 0.0664 for the first, 0.0727 for the second.

Compared with GCCCCCGA, ATTTCTTA is higher in “PBM E-score” value: -0.227 for the first, 0.0841 for the second.

First: ACTGTTGG
Second: ATACAAAT
The “PBM E-score” value of the first is lower: -0.0953 for the first, 0.312 for the second.

First: ACGGCTTC
Second: GAGAATGA
The “PBM E-score” value of the first is lower: -0.0566 for the first, 0.15 for the second.

Going from GTTGATAA to GGCCTCCA, the “PBM E-score” value falls from 0.197 to -0.306.

First: CGACCACG
Second: CTGCAGCC
The “PBM E-score” value of the first is higher: -0.0702 for the first, -0.287 for the second.

First: GTCCGCGA
Second: ATCGCCGC
The “PBM E-score” value of the first is higher: 0.347 for the first, 0.0642 for the second.

Going from AAGGTGCC to CTGACAAC, the “PBM E-score” value falls from -0.119 to -0.213.

Compared with AGTATGGC, AGGTTTCG is higher in “PBM E-score” value: -0.25 for the first, -0.0234 for the second.

First: ATCAGGAC
Second: AAGCTGAA
The “PBM E-score” value of the first is lower: -0.0525 for the first, 0.0914 for the second.

Going from GGAGCACC to ACTTGCCG, the “PBM E-score” value rises from -0.167 to -0.0958.

Compared with ATCGAGTG, GTGTGACA is lower in “PBM E-score” value: 0.0131 for the first, -0.182 for the second.

Going from CGGATCGC to GGACGGCA, the “PBM E-score” value falls from -0.0447 to -0.0542.

Compared with ATTTCTCC, AACTTTCT is higher in “PBM E-score” value: 0.131 for the first, 0.16 for the second.

First: ATAGTAGC
Second: CGTGGCCA
The “PBM E-score” value of the first is higher: 0.134 for the first, -0.322 for the second.

Going from GGAAGGCA to CCATTTTA, the “PBM E-score” value rises from -0.0759 to 0.178.

Going from AATGCGCC to CGCATGAG, the “PBM E-score” value falls from 0.00412 to -0.339.

Going from AACGTATA to ATTCGTCG, the “PBM E-score” value rises from 0.0992 to 0.132.

Compared with ATTACAAT, TGGTGTAA is lower in “PBM E-score” value: 0.151 for the first, -0.0711 for the second.

First: AACTAAAA
Second: AAACTACG
The “PBM E-score” value of the first is higher: 0.31 for the first, 0.072 for the second.

Compared with CACTCCCA, CGGAAAAC is higher in “PBM E-score” value: -0.0412 for the first, 0.283 for the second.

Compared with CATAGATC, CCCCTCGC is lower in “PBM E-score” value: -0.108 for the first, -0.28 for the second.
